# Experimental data published in PubChem BioAssay AID686979 (National Center for Advancing Translational Sciences (NCATS), 2013).
# Several values for one entry are separate records, joined by “and”; a condition that tells them apart may be missing. Equal entries are not always repeated. In all, about 420,000 compounds went through this assay and about 50,000 (12%) were called active. The shares of active, inactive and inconclusive entries below differ from those in the screen. Calls follow the shape of the dose curve; as a rule, active = well fitted inhibition curve with a large enough effect; inconclusive = small, poorly fitted or top-dose-only effect; inactive = flat fitted curve, though single readings scatter. Potencies beside an inconclusive call are fits to weak or partial responses and may not hold up.
# Test: qHTS for Inhibitors of human tyrosyl-DNA phosphodiesterase 1 (TDP1): qHTS in cells in presence of CPT; also: nearly all actives have a fitted effect of over 55% in size
# Conditions: chicken DT40 Tdp1-/-;hTDP1 cells + 20 nM CPT, ATP luminescence, 48 h; activity change, negative = growth inhibition: at 46.2 µM (top of the series)
# How it was run: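 Cell growth measured by CellTiter-Glo luminescence after a minimum 48 h, 37 C compound exposure with 20 nM CPT in Tdp1-knockout DT40 cells stably expressing hTDP1, seeded 400/well; qHTS titration format.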
# % is scaled to controls: 0 for no effect and ±100 for the full control effect; potency is read from the fitted curve at half-maximal effect; tags tell the direction and shape of the fitted curve.
SMILES,Potency,"activity change, negative = growth inhibition"
COC(=O)C(C(=O)OC)c1ccccc1CNS(=O)(=O)c1ccc(C)cc1,"inconclusive: 32.6 µM [inhibitor, single point]",
Fc1ccc(C(CCNCc2cccs2)c2ccco2)cc1 (stereo not given),"inconclusive: 29.1 µM [inhibitor, single point]",
Cc1ccc(NC(=O)c2ccc(N(Cc3ccccc3)S(C)(=O)=O)cc2)cc1,"inconclusive: 14.6 µM [inhibitor, single point]",
Cc1ccc(SC[C@H](C)CN2CC[C@H](C(C)(C)C)CCC2=O)cc1,"inconclusive: 35.5 µM [inhibitor, single point] and inconclusive: 20.6 µM [inhibitor, single point]",
CC1CCN(C(=O)CSc2nc3ccccc3s2)CC1,inactive,
Cc1cc(/C=C2/C(=O)NN(c3ccccc3)C2=O)c(C)n1-c1ccc(O)cc1,"inconclusive: 18.4 µM [inhibitor, single point]",
COc1ccc(NS(=O)(=O)c2cc3c4c(c2)CCN4C(=O)CC3)c(OC)c1,inactive,
COc1ccc(OC)c(CCNC(=O)c2nn(C)c3c2CSc2ccccc2-3)c1,"inconclusive: 29.1 µM [inhibitor, single point]",
O=C(NCc1cccs1)c1cc(S(=O)(=O)N2CCCCC2)ccc1Cl,"inconclusive: 29.1 µM [inhibitor, single point]",
O=C(COC(=O)c1cncc(Br)c1)NC1CCCC1,inactive,
C=CC[C@@H](Cc1ccc(F)cc1)C(=O)OC[C@@H]1CCCN1C(=O)[C@H](CC=C)CC(=O)NCCO,"inconclusive: 25.9 µM [inhibitor, single point]",
CC(C)n1c(C(=O)OCC(=O)NCc2ccc3c(c2)OCO3)cc2sccc21,"inconclusive: 25.9 µM [inhibitor, single point]",
CCCn1cc(S(=O)(=O)c2ccc(CC)cc2)c(=O)c2cc(F)c(N3CCN(C)CC3)cc21,active: 16.4 µM,
CCOc1ccc(Cn2c(CNS(=O)(=O)c3ccc(CC)cc3)nc3cccnc32)cc1,"inconclusive: 18.4 µM [inhibitor, single point]",
Clc1ccc(OCCN2CCCCC2)c(Cl)c1,inactive,
CCOC(=O)N1CCC(NC(=O)c2ccc3c(c2)N(Cc2ccc(Cl)cc2)C(=O)c2ccccc2S3(=O)=O)CC1,"inconclusive: 29.1 µM [inhibitor, single point]",
CC1(C(=O)NS(=O)(=O)c2ccc(F)cc2F)CCN1C(=O)CC1CCCCC1 (stereo not given),inactive,
CCN(Cc1ccncc1)C(=O)c1cc(COc2ccc(OC)cc2Cl)on1,active: 16.4 µM,
CCOC(=O)c1csc(NC(=O)CCS(=O)(=O)c2ccc(Cl)cc2)n1,"inconclusive: 29.1 µM [inhibitor, single point]",
O=C(NCc1ccccc1)Nc1cccn(Cc2ccccc2F)c1=O,"inconclusive: 0.058 µM [inhibitor, full curve, poor fit]",
CCC1CCc2c(sc(NC(=O)C3c4ccccc4Oc4ccccc43)c2C(=O)OC)C1 (stereo not given),"inconclusive: 20.6 µM [inhibitor, single point]",
O=c1[nH]c2c(c(=O)[nH]1)CCCCCC2,inactive,
Cc1ccccc1NC(=O)/C(C#N)=C/c1ccc(-c2ccc(Cl)c(C(=O)O)c2)o1,"inconclusive: 29.1 µM [inhibitor, single point]",
COc1cccc(C(=O)C2CCCN(Cc3ccc(OC)c(Cn4cncn4)c3)C2)c1 (stereo not given),"inconclusive: 16.4 µM [inhibitor, partial curve]",

SMILES,Potency,"activity change, negative = growth inhibition"
COc1ccccc1CNS(=O)(=O)c1cc(-c2cc(C)no2)ccc1C(C)C,"inconclusive: 29.1 µM [inhibitor, single point]",
Cc1ccc(S(=O)(=O)N2CCN(Cc3nnc(-c4c(-c5ccccc5)noc4C)o3)CC2)cc1,active: 14.6 µM,
CCn1c(=O)c2c(nc(SCC(=O)N3CCCC(C)C3)n2C)n(C)c1=O (stereo not given),inactive,
Cc1ccsc1C1NC(=O)c2c(sc3c2CCN(C)C3)N1 (stereo not given),"inconclusive: 29.1 µM [inhibitor, single point]",
CCCC(=O)Nc1nc(-c2ccccc2)c(CC)s1,"inconclusive: 23.1 µM [inhibitor, partial curve]",
COc1cccc(NS(=O)(=O)c2c(C(=O)N3CCCCCC3)c(C)n(C)c2C)c1,inactive,
CC1CCC2C(C)(C)C3CC12CC[C@]3(C)O (stereo not given in full),inactive,
CCOC(=O)C1CSC2(CCC(c3ccccc3)CC2)N1 (stereo not given),inactive,
N#Cc1ccc(C(=O)N2CCCCC2c2cc(C(=O)Nc3ccc4c(c3)OCO4)no2)cc1 (stereo not given),"inconclusive: 29.1 µM [inhibitor, single point]",
O=C(Cn1ncc2c3ccccc3n(Cc3ccccc3)c2c1=O)NCCCN1CCCC1,"inconclusive: 29.1 µM [inhibitor, single point]",
CCOC(=O)C1CCN(C(=O)c2sc3nc(C)nc(N4CCC(C)CC4)c3c2C)CC1,"inconclusive: 25.9 µM [inhibitor, partial curve]",
Cc1ccc([C@H]2N[C@]3(CCCN(Cc4ccc(F)cc4)C3=O)[C@H]3C(=O)N(Cc4ccccc4)C(=O)[C@@H]23)cc1,"inconclusive: 29.1 µM [inhibitor, single point]",
Cc1onc(-c2ccccc2Cl)c1C(=O)Oc1cc(N)n(S(=O)(=O)c2ccc(F)cc2)n1,"inconclusive: 23.1 µM [inhibitor, single point]",
CCC(C)N(C(=O)COC(=O)Cc1n[nH]c(=O)c2ccccc12)C1CCS(=O)(=O)C1 (stereo not given),inactive,
COc1ccc(NC(=O)c2c(NCc3cccs3)sc3c2CCCCC3)c(OC)c1,"inconclusive: 25.9 µM [inhibitor, single point]",
Cc1cccc(CNc2cc(-c3ccoc3)ncn2)c1,"inconclusive: 29.1 µM [inhibitor, single point]",
Cc1cc(C)c(S(=O)(=O)N2CCCCC2CCNC(=O)C(=O)NCCN2CCOCC2)c(C)c1 (stereo not given),"inconclusive: 11.6 µM [inhibitor, single point]",
CCCCOCCCN1CC(=O)N2[C@@H](Cc3c([nH]c4ccccc34)C2(C)C)C1=O,"inconclusive: 29.1 µM [inhibitor, single point]",
CC(=O)c1ccc(NC(=O)CSc2nnc(Cn3cnc4ccccc43)o2)cc1,inactive,
Clc1ccc(-c2nc(N3CCOCC3)nc3ccccc23)cc1,"inconclusive: 16.4 µM [inhibitor, partial curve]",
Cc1ccc(NC(=O)CCCn2c(=S)[nH]c3ccsc3c2=O)cc1C,inactive,
COc1ccc(Cn2c(=O)cc(N)n(-c3ccccc3C)c2=O)cc1,"inconclusive: 23.1 µM [inhibitor, single point]",
COc1ccc(/C=C(/NC(=O)c2ccc(OC)cc2)C(=O)NCCc2c[nH]c3ccccc23)cc1,inactive,
CCOC(=O)N1CCN(CC(O)COc2ccc3c(c2)CCC3)CC1 (stereo not given),inactive,

SMILES,Potency,"activity change, negative = growth inhibition"
Cc1ccc(S(=O)(=O)CCC(=O)OCC(=O)NC(N)=O)cc1,"inconclusive: 14.6 µM [inhibitor, single point]",
COc1ccccc1/C=C/CN1CCN(Cc2ccc(C)o2)C(CCO)C1 (stereo not given),"inconclusive: 25.9 µM [inhibitor, single point]",
FC(F)(F)c1cnc(-c2cc3c(c(OCC4CCCO4)c2)OCCN(Cc2cccn2-c2nccs2)C3)c(Cl)c1 (stereo not given),,inactive: 14.7% [at 9.04 µM]
Fc1ccccc1C1CC(c2ccco2)=Nc2ccccc2S1 (stereo not given),"inconclusive: 29.1 µM [inhibitor, single point]",
CC1CCc2nc(/C(C#N)=C/c3cccnc3)sc2C1 (stereo not given),active: 20.6 µM,
CC(C)c1nc(SCC(=O)N2CCCc3ccccc32)c2c(=O)n(C)c(=O)n(C)c2n1,active: 7.31 µM,
O=C(Cn1cc(SCc2ccccc2F)c2ccccc21)N1CCCC1,"inconclusive: 25.9 µM [inhibitor, single point]",
CC(C)C[C@@H]1COc2cccc(N3CCC[C@@H]3CO)c2S(=O)(=O)N1,inactive,
CC(=O)Nc1cccc(C(=O)/C=C/c2cccs2)c1,"inconclusive: 20.6 µM [inhibitor, single point]",
CCOc1ccc(S(=O)(=O)NCc2cccnc2)c2ccccc12,inactive,
COC(=O)c1ccc(COc2ccc3c(C)c(C)c(=O)oc3c2)o1,inactive,
Cc1csc(SCC(=O)NC2CCS(=O)(=O)C2)n1 (stereo not given),inactive,
CCn1c2ccccc2c2nnc(SCC(=O)c3ccccc3)nc21,"inconclusive: 29.1 µM [inhibitor, single point]",
CCCOc1ccc(-c2nc(C#N)c(NCCCn3ccnc3)o2)cc1,"inconclusive: 18.4 µM [inhibitor, single point]",
COc1ccc(-c2csc(/C(C#N)=C/Nc3ccc4c(c3)OCCO4)n2)cc1,"inconclusive: 20.6 µM [inhibitor, single point]",
C/C=C/NNC(=O)Cc1ccc(OC)cc1,active: 3.55 µM,
N#C/C(=C\C1=C(N2CCOCC2)C(=C/c2cccc([N+](=O)[O-])c2)/CC1)C(=O)Nc1ccccc1F,active: 9.2 µM,
CN(C)c1ccc(NC(=O)Nc2ccc3snnc3c2)cc1,inactive,
CCCOc1ccc2nc(NC(=O)OC)[nH]c2c1,active: 0.0944 µM,
O=C(NCc1cccc(C(F)(F)F)c1)c1cc(Cl)ccc1Cl,"inconclusive: 29.1 µM [inhibitor, single point]",
Cc1ccc(-c2nnc(CSc3nc4cc5c(cc4cc3C)OCO5)o2)cc1,"inconclusive: 25.9 µM [inhibitor, single point]",
CN(CC(=O)NCCc1ccc(S(N)(=O)=O)cc1)CC(=O)Nc1ccccc1Cl,inactive,
